The other results are listed elsewhere or left out.

The assay concerns T1, Caupolican (Caup) homeodomain DNA-binding domain.
T1 sequence: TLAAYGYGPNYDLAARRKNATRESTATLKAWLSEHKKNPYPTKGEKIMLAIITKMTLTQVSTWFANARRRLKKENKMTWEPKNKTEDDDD
As to the kind of experiment: PBM E-score (8-mer, recovered from the published 9-mer minima) (E-score (dimensionless, -0.5 to 0.5)); Drosophila protein; higher = stronger relative binding preference, active = 0.31 or more. A digest of the protocol:
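Caup's homeodomain DNA-binding domain (residues 214-303) was produced by in vitro transcription and translation and applied at 100 nM to custom-designed protein binding microarrays. Each value is an enrichment score giving relative binding preference for a short DNA word; higher means stronger. Published 9-mer scores were the minimum of their two constituent 8-mer scores, and the 8-mer values were recovered from those minima. A cutoff of 0.31 marks candidate binding sequences.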
Take AGGCGGGG: the “PBM E-score” value was inactive: -0.167. With CAAGGACC, the “PBM E-score” value was inactive: 0.00781. On to ACGTGTAA, for which the “PBM E-score” value is active: ≥ 0.394. As for AAGCGCAG, the “PBM E-score” value was inactive: -0.114. With CCGTGCAC the figure was inactive: 0.00622. On to AAATGCCA, for which the “PBM E-score” value was inactive: -0.0499. AGAAAGTA: the “PBM E-score” value was inactive: 0.0641.

For GGCGCGAC, the “PBM E-score” value is inactive: -0.185. With TAGGGTAA the figure was inactive: 0.091. With ATCATGAT the figure was not below 0.164; with CGCCATTC, inactive: -0.132. The figure for ACGTGAAA is not below 0.0764.

Regarding ACCCACTA, the “PBM E-score” value was inactive: 0.0164. On to AGTGCCCC, for which the “PBM E-score” value was inactive: -0.219. With CATCGAGG the figure was inactive: -0.00272; with CCTCCCCC, inactive: -0.369. For GGTCATAA, the “PBM E-score” value is inactive: 0.0617.

Regarding ACGTCAAG, the “PBM E-score” value is inactive: -0.0382.

AAGGCACA: the “PBM E-score” value was not below 0.00079. In the case of ACACAGGA, the “PBM E-score” value is inactive: 0.201.

GCATGAGC: the “PBM E-score” value was inactive: -0.0712. Consider CGTCCAGC, for which the “PBM E-score” value is inactive: -0.094. With ATTGTGGC the figure was inactive: -0.0911.

On to AAACCTCA, for which the “PBM E-score” value is inactive: 0.0488. With AAACGACC the figure was inactive: -0.0413; with GAGGACGC, inactive: -0.0949; with GAATGAGC, inactive: 0.0736. The figure for GAGCTGGC is inactive: -0.133; for CCGTAGTC it is inactive: -0.148; for CACGGACC it is inactive: -0.0277. With GTCCGATA the figure was inactive: 0.0652; with TGTCGCAA, inactive: 0.154.

As for AACCCTAG, the “PBM E-score” value is inactive: 0.0534. With ATATCCGA the figure was inactive: 0.134. For AGTATCCG, the “PBM E-score” value was inactive: 0.0154. With ACGGAGTC the figure was inactive: -0.0831. The figure for CCCCGGTA is inactive: -0.0789; for CACCCCCC it is inactive: -0.261; for AAAACAGC it is inactive: 0.148. The figure for TCGAGACA is inactive: 0.165; for CCGGGGCC it is inactive: -0.294; for CCCCCCCC it is inactive: -0.378.

Regarding CAAACTTC, the “PBM E-score” value was inactive: 0.0813. The figure for CCCTGGGC is inactive: -0.316. With TCGACTAA the figure was inactive: 0.114; with CCGTGTCA, inactive: 0.278; with CTGCTACA, inactive: 0.182. With CGCGGAGA the figure was inactive: -0.112; with AAATGACA, inactive: 0.267. For ATTCCTGA, the “PBM E-score” value is inactive: 0.0483. The figure for CAAGGAGC is inactive: -0.0683. With CCCACAAG the figure was inactive: -0.101. The figure for AAGGATCG is inactive: -0.00636. Take AAATTTTC: the “PBM E-score” value was inactive: -0.0413.

Consider CCTGTTCA, for which the “PBM E-score” value was inactive: 0.15. Turning to ACTTGTGG, the “PBM E-score” value was inactive: 0.0442.

Take CACTTAGC: the “PBM E-score” value was inactive: -0.0589. With ACCTATCC the figure was inactive: -0.0326; with CATGACTA, inactive: 0.198; with AATTAATG, inactive: 0.18. With CTAGTCTC the figure was inactive: 0.0185. With CAACGCAC the figure was inactive: -0.0213; with ATAATAGC, inactive: 0.0678; with CGTCATCA, inactive: 0.0738. As to CCCTACAC, the “PBM E-score” value is inactive: 0.0585. The figure for AATGAGGT is inactive: 0.0755. On to TACACGTA, for which the “PBM E-score” value is active: 0.361.

CTGTGAGC: the “PBM E-score” value was inactive: -0.0353. Take ATTTCTGG: the “PBM E-score” value is inactive: 0.0733.

With ATCTCGAA, the “PBM E-score” value was inactive: -0.0205. With GGAGGATA the figure was inactive: -0.0589; with CTACGCTA, inactive: -0.0834.

For the sequence AACGTCTC, the “PBM E-score” value is inactive: 0.0592. Turning to AATAGTCA, the “PBM E-score” value is inactive: 0.0868. The figure for AGCAGGCC is inactive: -0.129; for AATCATGG it is inactive: 0.0994. The figure for TGAGGGAA is inactive: -0.0926; for ATTTAAGG it is inactive: -0.11; for ATCCTATG it is inactive: 0.117.

In the case of AACGAGCA, the “PBM E-score” value is not below 0.162. Turning to ATCTCCGG, the “PBM E-score” value is inactive: -0.0699. As for ATTAATAA, the “PBM E-score” value is inactive: 0.176. The figure for GCTCCAAA is inactive: -0.0959; for ACGACCTA it is inactive: 0.044; for AGGGCTTA it is inactive: -0.171. Turning to ACCTTCCA, the “PBM E-score” value is inactive: -0.0675. As to AGCGTGAG, the “PBM E-score” value was inactive: -0.108. The figure for ATGCAGTG is inactive: 0.015. With TAACAAGA the figure was inactive: 0.298; with AATAACCC, inactive: 0.0697; with CGGACTCA, inactive: -0.0355. The figure for AATGTGGT is inactive: 0.109. Turning to GATATGAC, the “PBM E-score” value is inactive: 0.0792. The figure for GGACTCCC is inactive: -0.16; for AAATACAG it is inactive: 0.132. The figure for TCTAGAAA is inactive: 0.0687; for TAATACGA it is inactive: 0.157. On to CAATCCCC, for which the “PBM E-score” value is inactive: -0.092.

Take AGACCTAA: the “PBM E-score” value was inactive: -0.0435. With ACCGTTTA the figure was not below 0.0674; with AAGTTAAG, inactive: -0.00076. As to ATTAGTGG, the “PBM E-score” value is inactive: 0.131.

On to CTCTATAC, for which the “PBM E-score” value was inactive: 0.00278. AGCGCTAA: the “PBM E-score” value was inactive: -0.0719. With CATGCCGA the figure was inactive: 0.0553; with AGTTCAAC, inactive: 0.0449.

Regarding CATACGAC, the “PBM E-score” value was inactive: 0.09. With CTCCAACA the figure was inactive: 0.0786.

For the sequence ATACTCAA, the “PBM E-score” value was inactive: 0.139.

Turning to CATTAGGC, the “PBM E-score” value is inactive: -0.0787. With AGGGGGCG the figure was inactive: -0.287; with CAACTGTG, inactive: 0.0761.

Source of the values: the supplement of paper PMC3724861.
